According to ChEMBL document CHEMBL5308541, “MAIP: An Open-Source Tool to Enrich High-Throughput Screening Output and Identify Novel, Druglike Molecules with Antimalarial Activity” (ACS Med Chem Lett, 2023):
Screen size: about 150,000 compounds; about 540 (0.36%) showed an effect of 50% or more. The list shows a part of the results.

system: Plasmodium falciparum; assay: Primary screen in NF54 nanoGlo assay, in single point, at 2uM, 72h; a lower Z score goes with more inhibition; format: functional, Erythrocyte; settings: timepoint 72 hour

In order of rising “% Inhibition” value:
1. COc1ccc(N2CCN(CCCNc3nc4ccccc4o3)CC2)cc1  -11%
2. COC1CN(c2ccc(NS(=O)(=O)CCOc3ccccc3)cc2)C1  -10%
3. CCCCN1CCOC[C@H]1C(=O)NC1CCN(c2cc(C)nc(C)n2)CC1  -9%
4. Nc1ncc(-c2ccc(C(=O)NC3(CN4CCCC4)CCCCC3)cc2)cn1  -7%
5. CCCOc1ccccc1-c1nnc(NCC2(O)CCN(C)CC2)o1  -6%
6. Cn1ncc(N2CC[C@H](CNc3ncc(F)c(N4CCOCC4)n3)C2)cc1=O  -5%
7. COCCNc1cc(-c2ccnc(OC)c2C#N)c2cc[nH]c2n1  -5%
8. Cc1c(Cl)cccc1N1CCCN(c2ccnc(N3CCOCC3)n2)CC1  -5%
9. Cc1cc(O)c(Cl)cc1-c1ccc2ncnc(N)c2c1  -5%
10. c1cnc(-c2nc(CCNc3ccc4cc[nH]c4n3)cs2)nc1  -5%
11. CN1C2CCC1CC(N1CCN(C(=O)[C@H]3C[C@@]34CCOc3ccc(F)cc34)CC1)C2 (stereo partly specified)  -5%
12. CN(C)C(=O)C1CCCC(NC(=O)c2ncn(-c3ccccc3)n2)C1 (stereo unspecified)  -4%
13. Cc1nc2ccc(C(=O)NC[C@H]3CCCN3c3nc4ccccc4o3)cc2s1  -3%
14. COCC(C)(C)N(Cc1ccccc1)C(=O)c1ccc2nnnn2c1  -2%
15. O=C(c1[nH]nc2ccccc12)N1CC[C@@]2(C1)NCc1ccccc1N=C2NC1CCCC1  -1%
16. CC[C@@H](NC(=O)c1oc2c(C)ccc(C)c2c1C)C(N)=O  -1%
17. CCCC(=O)NC1(C(F)(F)F)CCN(C(=O)OC(C)(C)C)CC1  1%
18. COc1ccc(CNCCc2c[nH]cn2)c(OC[C@@H](O)CN2CCCC2)c1  1%
19. Cc1cccc(-c2cccc(N3CCC(NC[C@H]4CCC(=O)N4)CC3)c2)c1  1%
20. CCNc1ccnc(NC[C@H]2CCCN(C3CCCCC3)C2)n1  2%
21. CCNc1nc(NCC)nc(Nc2ccc(Oc3ccccc3)cc2)n1  2%
22. c1ccc(CCN2CCC(NCCc3ncc[nH]3)CC2)cc1  6%
23. c1cc2c(cc1N1CCC(NCCCc3nnn[nH]3)CC1)OCO2  21%

In order of falling Z score:
1. COC1CN(c2ccc(NS(=O)(=O)CCOc3ccccc3)cc2)C1  1.79
2. COc1ccc(N2CCN(CCCNc3nc4ccccc4o3)CC2)cc1  1.74
3. Nc1ncc(-c2ccc(C(=O)NC3(CN4CCCC4)CCCCC3)cc2)cn1  1.51
4. CCCCN1CCOC[C@H]1C(=O)NC1CCN(c2cc(C)nc(C)n2)CC1  1.49
5. COCCNc1cc(-c2ccnc(OC)c2C#N)c2cc[nH]c2n1  0.96
6. CCCOc1ccccc1-c1nnc(NCC2(O)CCN(C)CC2)o1  0.93
7. Cc1c(Cl)cccc1N1CCCN(c2ccnc(N3CCOCC3)n2)CC1  0.92
8. Cn1ncc(N2CC[C@H](CNc3ncc(F)c(N4CCOCC4)n3)C2)cc1=O  0.9
9. c1cnc(-c2nc(CCNc3ccc4cc[nH]c4n3)cs2)nc1  0.88
10. Cc1cc(O)c(Cl)cc1-c1ccc2ncnc(N)c2c1  0.82
11. CN1C2CCC1CC(N1CCN(C(=O)[C@H]3C[C@@]34CCOc3ccc(F)cc34)CC1)C2 (stereo partly specified)  0.81
12. CN(C)C(=O)C1CCCC(NC(=O)c2ncn(-c3ccccc3)n2)C1 (stereo unspecified)  0.8
13. Cc1nc2ccc(C(=O)NC[C@H]3CCCN3c3nc4ccccc4o3)cc2s1  0.51
14. COCC(C)(C)N(Cc1ccccc1)C(=O)c1ccc2nnnn2c1  0.36
15. O=C(c1[nH]nc2ccccc12)N1CC[C@@]2(C1)NCc1ccccc1N=C2NC1CCCC1  0.29
16. CC[C@@H](NC(=O)c1oc2c(C)ccc(C)c2c1C)C(N)=O  0.21
17. CCCC(=O)NC1(C(F)(F)F)CCN(C(=O)OC(C)(C)C)CC1  -0.1
18. COc1ccc(CNCCc2c[nH]cn2)c(OC[C@@H](O)CN2CCCC2)c1  -0.25
19. Cc1cccc(-c2cccc(N3CCC(NC[C@H]4CCC(=O)N4)CC3)c2)c1  -0.25
20. CCNc1nc(NCC)nc(Nc2ccc(Oc3ccccc3)cc2)n1  -0.31
21. CCNc1ccnc(NC[C@H]2CCCN(C3CCCCC3)C2)n1  -0.35
22. c1ccc(CCN2CCC(NCCc3ncc[nH]3)CC2)cc1  -1
23. c1cc2c(cc1N1CCC(NCCCc3nnn[nH]3)CC1)OCO2  -3.77
